Experimental findings from the supplement of paper PMC3724861 are described below.

The list shows a part of the results. Some results are limits rather than exact numbers.

This experiment has as its system T1, Caupolican (Caup) homeodomain DNA-binding domain.
T1 sequence: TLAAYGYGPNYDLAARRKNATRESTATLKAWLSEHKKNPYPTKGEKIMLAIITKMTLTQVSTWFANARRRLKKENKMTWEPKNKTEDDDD
The experiment is described as follows: PBM E-score (8-mer, recovered from the published 9-mer minima) (E-score (dimensionless, -0.5 to 0.5)); Drosophila protein; higher = stronger relative binding preference, active = 0.31 or more. Summed up:
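Caup's homeodomain DNA-binding domain (residues 214-303) was produced by in vitro transcription and translation and applied at 100 nM to custom-designed protein binding microarrays. Each value is an enrichment score giving relative binding preference for a short DNA word; higher means stronger. Published 9-mer scores were the minimum of their two constituent 8-mer scores, and the 8-mer values were recovered from those minima. A cutoff of 0.31 marks candidate binding sequences.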
Take CCAGTAGA: the “PBM E-score” value is inactive: -0.0183. In the case of CTAGAAGC, the “PBM E-score” value was inactive: -0.125.

As to ATCATAAC, the “PBM E-score” value was inactive: 0.156. The same measure for GGATCTTA: inactive: -0.096. For the sequence AGTAGAAC, the “PBM E-score” value was inactive: 0.0123.

For AGGATGCC, the “PBM E-score” value is not below -0.00785.

As to ACAGATTA, the “PBM E-score” value is inactive: 0.0959. For AGAAGCTG, the “PBM E-score” value was inactive: -0.0418. As for ACCTTAGA, the “PBM E-score” value is inactive: -0.0802.

As for GGTTAACA, the “PBM E-score” value was inactive: 0.192. As for CCCGGCTA, the “PBM E-score” value was inactive: -0.141. For CAACCCTC, the “PBM E-score” value is inactive: -0.0608. ATTGCTGC: the “PBM E-score” value is inactive: -0.0356. CAGGGCCG: the “PBM E-score” value was inactive: -0.204. Regarding AGTATAAC, the “PBM E-score” value is inactive: 0.091.

In the case of CGGAGTCA, the “PBM E-score” value was inactive: -0.0798. With TCGTTCAA, the “PBM E-score” value was inactive: 0.0359. In the case of GAATCCCA, the “PBM E-score” value is inactive: 0.0261. The same measure for CCTGGCAC: inactive: -0.115; for AATTAGTG: inactive: 0.202; for CTATTAAA: inactive: 0.0453.

Regarding CAGGTCTC, the “PBM E-score” value is inactive: -0.15. In the case of TATCCCGA, the “PBM E-score” value was inactive: 0.0808.

Take AGGTTTAG: the “PBM E-score” value was inactive: 0.00358. Consider AACAATTC, for which the “PBM E-score” value is inactive: 0.19. The same measure for ATTGTCCA: inactive: 0.1; for ATCTTAAC: inactive: 0.176.

CAAAAAGC: the “PBM E-score” value was inactive: -0.0694. The same measure for CGCGCGGC: inactive: -0.232; for ACTCGTCC: inactive: -0.0489; for GAGCACAA: inactive: 0.039. As for CAAATTTA, the figure is inactive: 0.105. With CATGCGAC, the “PBM E-score” value was inactive: 0.0863. The same measure for AATTGGAG: inactive: 0.00807. Regarding GCAAGCAA, the “PBM E-score” value was inactive: -0.0127. Regarding CCGCCGCC, the “PBM E-score” value was inactive: -0.259. Take GAAAAGCA: the “PBM E-score” value is inactive: -0.0579. As for CACCAGAC, the figure is inactive: -0.05; as for GATCGTGC, inactive: -0.00242. In the case of CTTCGAAG, the “PBM E-score” value is inactive: -0.132.

For the sequence ATGCTTAC, the “PBM E-score” value was inactive: 0.043. As for GCACTGGC, the “PBM E-score” value was inactive: -0.127. On to AACGGTAG, for which the “PBM E-score” value was inactive: -0.0755.

Take GGTTTTAC: the “PBM E-score” value is inactive: 0.0559. For CCTTCCGA, the “PBM E-score” value was inactive: -0.162. As for CCCGCGCA, the figure is inactive: -0.182; as for TGACGACA, inactive: 0.24; as for TACAGACA, inactive: 0.288. The same measure for TACATTCA: inactive: 0.232; for CCACCGCA: inactive: -0.145. Turning to GCAGCATA, the “PBM E-score” value is inactive: 0.0377. For AGTTTCAT, the “PBM E-score” value was inactive: 0.0389. With ACGCAAAA, the “PBM E-score” value was inactive: 0.0611.

For CCCCTACA, the “PBM E-score” value was inactive: 0.0519. The same measure for AACAAAGC: inactive: 0.0791; for CGCCTCGA: inactive: -0.165. The same measure for ATCCTCAG: not below 0.0194; for CCCCGGCC: inactive: -0.278; for CATAACCG: inactive: 0.0434. As for AAGGAAGT, the “PBM E-score” value is inactive: -0.00485.

For the sequence ATCTTGTG, the “PBM E-score” value is inactive: 0.18.
